Data published in PubChem BioAssay AID1346428 (National Center for Advancing Translational Sciences (NCATS), 2018).
Among all 48,000 compounds or so, about 1,200 (2.5%) were called active. Inconclusive means that the source gave no clear call. Such entries were picked first, then a sample of the others.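 How the source made its calls: active means activation of at least 60% and not above a set upper limit (about 1 call in 100 departs from these limits); inconclusive means activation of 40% to 60%, or above that upper limit; inactive means activation under 40%.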

target: Probable G-protein coupled receptor 32 (Homo sapiens) (UniProt O75388); assay: qHTS for Agonists of Human Resolvin D1 Receptor DRV1; conditions: CHO-K1 GPR32 beta-arrestin PathHunter luminescence, 90 min; at 76.9 µM; active compounds read high; zero percent set by DMSO-only wells; further: 0% is about no effect
Outline: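 Step 1: seed CHO-K1 GPR32 beta-arrestin cells, 2,500/well, overnight at 37 °C. Step 2: add compounds, 90 min at 37 °C. Step 3: detection reagent, 1 h ambient, then luminescence.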

Chain of UniProt O75388 (O75388 whole entry, looked up): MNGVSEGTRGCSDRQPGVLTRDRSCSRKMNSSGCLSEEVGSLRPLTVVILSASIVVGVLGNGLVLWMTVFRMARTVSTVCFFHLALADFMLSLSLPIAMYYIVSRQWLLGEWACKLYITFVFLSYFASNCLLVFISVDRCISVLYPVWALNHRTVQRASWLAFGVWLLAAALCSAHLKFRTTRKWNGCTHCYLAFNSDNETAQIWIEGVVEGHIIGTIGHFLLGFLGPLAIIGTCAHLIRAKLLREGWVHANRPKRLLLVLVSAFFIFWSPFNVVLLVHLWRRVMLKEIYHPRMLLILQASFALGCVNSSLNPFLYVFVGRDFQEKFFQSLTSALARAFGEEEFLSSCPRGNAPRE

Compound	activation
Cc1ccc(Cl)cc1N1CCN(C(=O)Cn2c(-c3cccs3)cc3cc(F)ccc32)CC1	inactive: 2.7%
CCN(CCCNC(=O)c1cc(Nc2ccc(OC)cc2)nc2ccccc12)c1cccc(C)c1	inconclusive: 251%
N#Cc1cc2c(=O)n3ccccc3nc2n(-c2nnc(SCc3ccccc3F)s2)c1=O	inactive: 5.07%
CCN1CCOC(=O)C1CC(=O)Nc1cc(Cl)ccc1OC (centres undefined)	inconclusive: 58.1%
CCc1ccc(C2=C(C)C(N3CCC(C(=O)NCc4ccc(C)o4)CC3)=NS2(=O)=O)cc1	inconclusive: 52.5%
Cc1ccc(C(=O)Nc2ccc(F)cc2)cc1S(=O)(=O)N1CCOCC1	inconclusive: 54.4%
Cc1ccc2[nH]c3c(=O)n(CC(=O)N(C)Cc4ccccc4)ncc3c2c1	inconclusive: 166%
O=C(Cc1ccc(F)cc1)NCCc1csc(-c2ccc(C(F)(F)F)cc2)n1	inconclusive: 57.2%
O=C(Nc1ccc(OC(F)(F)F)cc1)C1CCN(S(=O)(=O)c2cccs2)CC1	inconclusive: 135%
CN(CC(=O)NCc1ccccc1)S(=O)(=O)c1ccc2[nH]c3c(c2c1)CCCC3	inconclusive: 52.8%
CC(=O)Nc1ccc2nc(SCCOc3cc(C)cc(C)c3)sc2c1	inconclusive: 59.6%
Cc1ccc(NC(=O)C2CCN(S(=O)(=O)c3cccc4nsnc34)CC2)cc1	inconclusive: 56.5%
Cc1ccc(C(C)C)c(OCC(=O)Nc2cc(-c3nc4ccccc4[nH]3)ccc2C)c1	inactive: -7.06%
CCOC(=O)CSc1nc2ccc(NC(=O)c3ccc(Cl)cc3)cc2s1	inconclusive: 185%
Cc1ccc(OCCSc2nc3ccccc3n2CC(=O)N2CCOCC2)cc1	inconclusive: 58.2%
COC(=O)C1=C(C)NC(C)=C(C(=O)OC)C1c1ccccc1[N+](=O)[O-]	inconclusive: 51.8%
Cc1ccc(Nc2c(-c3ccc(O)cc3)nc3cccc(C)n23)cc1	active: 117%
COc1ccccc1NC(=O)c1sc2nc3c(cc2c1N)CCCCCC3	inactive: 31.4%
Cc1cc(C)c(NC(=O)Nc2ccc3snnc3c2)c(C)c1	active: 62.8%
Cc1cc(NC(=O)C2CCN(S(=O)(=O)c3ccc4[nH]c(=O)oc4c3)CC2)ccc1Br	inconclusive: 52.1%
Cc1ccc(NC(=O)Cn2c(=O)oc3cc(S(=O)(=O)NCc4ccccc4)ccc32)cc1	active: 81%

Compound	activation
CCOC(=O)CSc1nc2ccc(NC(=O)c3ccc(C)cc3)cc2s1	inconclusive: 130%
CCOc1ccc(C2CC(=O)n3nc(-c4ccc(C)cc4)nc3S2)cc1OC (centres undefined)	active: 73.9%
CCc1ccc(N=C2NC(=O)CC(C(=O)Nc3ccc(OC)cc3)S2)cc1 (centres undefined)	active: 91.7%
O=C(NCc1cccc(Cl)c1)c1cc2c(s1)-c1ccccc1OC2	inactive: -9.58%
Cc1ccc2occ(CC(=O)Nc3nnc(C(C)C)s3)c2c1	inactive: -1.31%
C#C[C@]1(O)CC[C@H]2[C@@H]3CCc4cc(OC)ccc4[C@H]3CC[C@@]21C	active: 68.5%
Cc1ccnc(NC(c2ccccc2F)c2ccc3cccnc3c2O)c1 (centres undefined)	inconclusive: 193%
Cc1cc(NS(=O)(=O)c2ccc(NC(=O)COc3ccc(Br)cc3C)cc2)no1	inconclusive: 235%
Cc1ccc(CNC(=O)c2ccc(CS(=O)(=O)Cc3ccc(C)cc3)o2)cc1	inconclusive: 52.3%
CCC1CN(S(=O)(=O)c2cc(-c3cc(C)no3)ccc2C)c2cc(Cl)ccc2O1 (centres undefined)	inactive: -15.7%
COc1cccc(Cn2c(=O)cc(C)c3c(C)nn(C)c32)c1	active: 79.3%
Cc1ccc(Cl)cc1NC(=O)COC(=O)CC(C)(C)CC1=NS(=O)(=O)c2ccccc2N1	inconclusive: 139%
CC(C)c1ccc(NS(=O)(=O)c2ccc3[nH]cc(C(=O)NC4CCCC4)c(=O)c3c2)cc1	inconclusive: 175%
CCn1c(=O)cc(SCC(=O)Nc2ccc(C)c(F)c2)c2ccccc21	inactive: 46.3%
Cc1ccccc1C(=O)N1CCC(c2nc3ccccc3s2)CC1	inconclusive: 136%
Cc1ccc(-n2nc(C)c3c(C)c(CCC(=O)NCc4cccc(Cl)c4)c(C)nc32)cc1C	inactive: -9.89%
COc1ccc(S(=O)(=O)Nc2ccc(O)c(Sc3nc4ccccc4s3)c2)cc1	inconclusive: 141%
Cc1ccccc1CCNC(=O)c1cc2ccccn2n1	inactive: 32.3%
CCOC(=O)Nc1ccc2c(c1)N(C(=O)CCN1CCOCC1)c1ccccc1S2	inconclusive: 52.2%
CC(C)(C)C(=O)Nc1ccc(Cl)c(-c2nc3ccccc3[nH]2)c1	active: 87.8%
O=C(CSc1cn(CCNC(=O)c2ccccc2F)c2ccccc12)Nc1ccc2c(c1)OCCO2	inconclusive: 52.8%

Compound	activation
COc1ccccc1C(=O)NC1(C(F)(F)F)NC(=O)N(CCc2ccccc2)C1=O (centres undefined)	inconclusive: 53.2%
CC(C)CC(=O)OCc1cc(=O)n2nc(C3CCCCC3)sc2n1	active: 70.8%
Cc1cccc(N2C(=O)N(Cc3cccc(C#N)c3)c3ccccc3S2(=O)=O)c1	inactive: -11%
Cc1ccc(CNC(=O)CS(=O)(=O)Cc2nc(-c3ccccc3C)oc2C)cc1	inconclusive: 50.4%
CCN(CC)S(=O)(=O)c1ccc2c(c1)N(CC(=O)NCCCN1CCN(c3cc(Cl)ccc3C)CC1)C(=O)CO2	active: 77.6%
CC(C)OC(=O)C(C(=O)OC(C)C)=C1SC=CS1	active: 73.1%
Cc1cc(C)cc(NS(=O)(=O)c2ccc3[nH]cc(C(=O)NCCc4ccccc4)c(=O)c3c2)c1	active: 78.8%
O=C(O)Cn1c(C(=O)Nc2nc(-c3ccccc3Cl)cs2)cc2ccccc21	inconclusive: 156%
Cc1ccccc1C(=O)Nc1cc2c(cc1N1CCCCC1)n(C)c(=O)n2C	inconclusive: 239%
CCOc1ccc(CN2CCc3nc(N4CCN(c5ncccn5)CC4)ncc3C2)cc1OC	inactive: -20.8%
CCC(CC)C(=O)OCc1cc(=O)n2nc(C3CCCCC3)sc2n1	inconclusive: 132%
COc1ccc(C2CC(=O)c3c([nH]c(C(=O)OC4CCCC4)c3C)C2)cc1OC (centres undefined)	inactive: 10%
COc1ccc(Nc2nc(N)nc(CSc3nc4ccccc4s3)n2)cc1	inconclusive: 123%
O=C(CSc1nc2c(c(=O)[nH]1)CN(Cc1ccc(F)cc1)CC2)Nc1cccc(C(F)(F)F)c1	inconclusive: 54.5%
Cc1nn(Cc2ccccc2)c(C)c1NC(=O)c1cc(C(C)C)on1	inactive: 39.4%
Cc1ccc(C)c(N2CCN(CCCNC(=O)Cn3c(-c4cccs4)cc4ccccc43)CC2)c1	inactive: 19.2%
O=C(CN1C(=O)C2CCCCN2c2ccc(C(=O)N3CCCC3)cc21)NCc1ccccc1 (centres undefined)	inactive: -12.1%
COc1ccc(Cn2c(C(=O)O)c(CNCc3cccs3)c3ccc(C)cc32)cc1	inconclusive: 147%
COc1cccc(C(=O)Nc2ccc3oc(-c4ccc5ccccc5c4)nc3c2)c1	inconclusive: 57.7%
CCOC(=O)N1CCc2c(sc(NCc3ccc(OCC)cc3)c2C(=O)Nc2ccc(OC)cc2OC)C1	inconclusive: 57.7%
CCc1ccc(CNC(=O)c2sc3ncccc3c2-n2c(C)ccc2C)cc1	inactive: -8.47%

Compound	activation
CCn1c(=O)c2cc(C(=O)N3CCN(c4cccc(OC)c4)CC3)sc2c2ccccc21	inactive: -26.2%
CCc1ccc(C(c2ccccc2)c2c[nH]c3ccc(C)cc23)s1 (centres undefined)	inactive: -40.3%
Cc1ccccc1NC(=O)c1c(NC(=O)c2ccncc2)sc2c1CCC(C(C)(C)C)C2 (centres undefined)	active: 72.5%
COc1ccc(-c2cc(C)no2)cc1S(=O)(=O)Nc1c(C)cc(C)cc1C	inactive: -15.9%
COc1ccccc1CNC(=O)C1CCCN(C(=O)c2cnn(-c3ccc(F)cc3)c2-n2cccc2)C1 (centres undefined)	inconclusive: 50.5%
Fc1ccc(-n2ncc3c(NCCCn4ccnc4)ncnc32)cc1	inconclusive: 52%
Cc1cc2[nH]c(=O)c(=O)[nH]c2cc1S(=O)(=O)N1CCN(c2cccc(C(F)(F)F)c2)CC1	inconclusive: 51.7%
COc1ccc(OCC(=O)N2CCC(c3nc4ccccc4s3)CC2)cc1	inactive: 46.8%
Cc1ccc(CNC(=O)c2ccc3c(c2)c(C)c(C)n3Cc2ccccc2)o1	inactive: -31.3%
O=C(CN1CCN(Cc2ccccc2F)C1=O)NCc1ccccc1	inactive: 12.8%
CCc1ccc(-c2[nH]nc3nc(-c4cc(OC)ccc4OC)cc(C(=O)O)c23)cc1	inactive: -14.9%
Cc1c(Cl)cccc1Nc1ccccc1C(=O)O	inconclusive: 124%
CC(C)(C)c1ccc(C(=O)Nc2nnc3n2CCS3)cc1	inactive: -29.4%
CC(=O)c1ccc(NC(=O)/C=C/c2ccc(C)o2)cc1	inactive: 5.62%
COc1cc(C(=O)OC(COCCC(C)C)CN2CCOCC2)cc(OC)c1OC (centres undefined)	inactive: -20.1%
COc1ccc(Nc2cc(C(=O)NCc3ccccc3)c3ccccc3n2)cc1	inconclusive: 147%
Cc1cccc(Nc2cc(C)nc3nc(Cc4ccc(Cl)cc4)nn23)c1	inactive: -12.2%
CCOC(=O)c1c(-c2ccccc2)csc1NC(=O)c1cc(-c2cccc(Cl)c2)on1	inactive: -22.3%
O=C(Cn1c(=O)oc2cc(S(=O)(=O)N3CCCC3)ccc21)Nc1ccc(OC(F)(F)F)cc1	inconclusive: 60%
CCN(CC)CCNC(=O)c1ccc2c(=O)n3nc(Nc4cccc(Cl)c4C)sc3nc2c1	inactive: 15.8%
Cc1ccc(-n2nc3ccc(NC(=O)Cc4ccc(Cl)cc4)cc3n2)cc1	inactive: 21.4%
